# Measured values reported in the supplement of paper PMC8728848.
# The other results are listed elsewhere or left out.
# B1: LSECtin (Homo sapiens), Q6UXB4 (protein)
# chain: MEQESALRELRERVTQGLAEAGRGREDVRTELFRALEAVRLQNNSCEPCPTSWLSFEGSCYFFSVPKTTWAAAQDHCADASAHLVIVGGLDEQGFLTRNTRGRGYWLGLRAVRHLGKVQGYQWVDGVSLSFSHWNQGEPNDAWGRENCVMMLHTGLWNDAPCDSEKDGWICEKKAQLLTPPSALEPRPLQHVVSWGLLTSLAPGADCQRVFSSSSTAAESQKHLAQHSPVQPSAWALGPPCRPHPNSTHADPT
# Legend:
# Assay in all cases: glycan array binding signal (z-score within array); higher = stronger binding
# Details in all cases: glycan notation: IUPAC condensed, linker removed
# Fuc(a1-2)Gal = target: Fuc(a1-2)Gal
# Summary of the method: (§1)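 Negative Z-scores can be read as non-binding. The Z-score is calculated within each array and then averaged across arrays of one protein sequence at different concentrations or buffers and across linkers. Arrays, 3228 in all, were curated from the Consortium for Functional Glycomics database and kept only where the protein sequence was available.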
# Fuc(a1-2)Gal(b1-3)GalNAc = target: Fuc(a1-2)Gal(b1-3)GalNAc
# Summary of the method: as §1
# [1] = target: Fuc(a1-2)Gal(b1-3)GalNAc(b1-3)Gal
# Summary of the method: as §1
# [2] = target: Fuc(a1-2)Gal(b1-3)GalNAc(b1-3)Gal(a1-4)Gal(b1-4)Glc
# Summary of the method: as §1
# [3] = target: Fuc(a1-2)Gal(b1-3)GalNAc(b1-4)[Neu5Ac(a2-3)]Gal(b1-4)Glc
# Summary of the method: as §1
# Fuc(a1-2)Gal(b1-3)GlcNAc = target: Fuc(a1-2)Gal(b1-3)GlcNAc
# Summary of the method: as §1
# [4] = target: Fuc(a1-2)Gal(b1-3)GlcNAc(b1-3)Gal(b1-4)Glc
# Summary of the method: as §1
# [5] = target: Fuc(a1-2)Gal(b1-3)[Fuc(a1-4)]GlcNAc
# Summary of the method: as §1
# Fuc(a1-2)Gal(b1-4)Glc = target: Fuc(a1-2)Gal(b1-4)Glc
# Summary of the method: as §1
# Fuc(a1-2)Gal(b1-4)Glc6S = target: Fuc(a1-2)Gal(b1-4)Glc6S
# Summary of the method: as §1
# Fuc(a1-2)Gal(b1-4)GlcNAc = target: Fuc(a1-2)Gal(b1-4)GlcNAc
# Summary of the method: as §1
# [6] = target: Fuc(a1-2)Gal(b1-4)GlcNAc(b1-3)Gal(b1-4)GlcNAc
# Summary of the method: as §1
# [7] = target: Fuc(a1-2)Gal(b1-4)GlcNAc(b1-3)Gal(b1-4)GlcNAc(b1-3)Gal(b1-4)GlcNAc
# Summary of the method: as §1
# [8] = target: Fuc(a1-2)Gal(b1-4)GlcNAc6S
# Summary of the method: as §1
# [9] = target: Fuc(a1-2)Gal(b1-4)[Fuc(a1-3)]GlcNAc
# Summary of the method: as §1
# [10] = target: Fuc(a1-2)Gal(b1-4)[Fuc(a1-3)]GlcNAc(b1-3)Gal(b1-4)[Fuc(a1-3)]GlcNAc
# Summary of the method: as §1
# [11] = target: Fuc(a1-2)Gal(b1-4)[Fuc(a1-3)]GlcNAc(b1-3)Gal(b1-4)[Fuc(a1-3)]GlcNAc(b1-3)Gal(b1-4)[Fuc(a1-3)]GlcNAc
# Summary of the method: as §1
# Fuc(a1-2)Gal6S(b1-4)Glc = target: Fuc(a1-2)Gal6S(b1-4)Glc
# Summary of the method: as §1
# [12] = target: Fuc(a1-2)Gal6S(b1-4)Glc6S
# Summary of the method: as §1
# [13] = target: Fuc(a1-2)Gal6S(b1-4)GlcNAc
# Summary of the method: as §1
# Fuc(a1-2)[Gal(a1-3)]Gal = target: Fuc(a1-2)[Gal(a1-3)]Gal
# Summary of the method: as §1
# [14] = target: Fuc(a1-2)[Gal(a1-3)]Gal(b1-3)GlcNAc
# Summary of the method: as §1
# [15] = target: Fuc(a1-2)[Gal(a1-3)]Gal(b1-4)Glc
# Summary of the method: as §1
# [16] = target: Fuc(a1-2)[Gal(a1-3)]Gal(b1-4)GlcNAc
# Summary of the method: as §1
# [17] = target: Fuc(a1-2)[Gal(a1-3)]Gal(b1-4)[Fuc(a1-3)]GlcNAc
# Summary of the method: as §1
# [18] = target: Fuc(a1-2)[Gal(a1-4)]Gal(b1-4)GlcNAc
# Summary of the method: as §1
# [19] = target: Fuc(a1-2)[GalNAc(a1-3)]Gal
# Summary of the method: as §1
# [20] = target: Fuc(a1-2)[GalNAc(a1-3)]Gal(b1-3)GlcNAc
# Summary of the method: as §1
# [21] = target: Fuc(a1-2)[GalNAc(a1-3)]Gal(b1-4)Glc
# Summary of the method: as §1
# [22] = target: Fuc(a1-2)[GalNAc(a1-3)]Gal(b1-4)GlcNAc
# Summary of the method: as §1
# [23] = target: Fuc(a1-2)[GalNAc(a1-3)]Gal(b1-4)[Fuc(a1-3)]GlcNAc
# Summary of the method: as §1
# [24] = target: Fuc(a1-2)[GalNAc(a1-4)]Gal(b1-4)GlcNAc
# Summary of the method: as §1
# [25] = target: Fuc(a1-2)[GalNAc(b1-3)]Gal
# Summary of the method: as §1
# Fuc(a1-3)GlcNAc = target: Fuc(a1-3)GlcNAc
# Summary of the method: as §1
# [26] = target: Fuc(a1-3)[Gal(b1-4)]Glc6S
# Summary of the method: as §1
# [27] = target: Fuc(a1-3)[Gal(b1-4)]GlcNAc
# Summary of the method: as §1
# [28] = target: Fuc(a1-3)[Gal(b1-4)]GlcNAc(b1-2)Man(a1-3)[Fuc(a1-3)[Gal(b1-4)]GlcNAc(b1-2)Man(a1-6)]Man(b1-4)GlcNAc(b1-4)GlcNAc
# Summary of the method: as §1
binder,measurement,setting,value
B1,glycan array binding signal (z-score),Fuc(a1-2)Gal,0.115
same,glycan array binding signal (z-score),Fuc(a1-2)Gal(b1-3)GalNAc,-0.303
same,glycan array binding signal (z-score),[1],-0.298
same,glycan array binding signal (z-score),[2],-0.303
same,glycan array binding signal (z-score),[3],-0.296
same,glycan array binding signal (z-score),Fuc(a1-2)Gal(b1-3)GlcNAc,-0.244
same,glycan array binding signal (z-score),[4],-0.306
same,glycan array binding signal (z-score),[5],-0.267
same,glycan array binding signal (z-score),Fuc(a1-2)Gal(b1-4)Glc,3.15
same,glycan array binding signal (z-score),Fuc(a1-2)Gal(b1-4)Glc6S,-0.241
same,glycan array binding signal (z-score),Fuc(a1-2)Gal(b1-4)GlcNAc,1.99
same,glycan array binding signal (z-score),[6],2.42
same,glycan array binding signal (z-score),[7],1.44
same,glycan array binding signal (z-score),[8],0.016
same,glycan array binding signal (z-score),[9],1.98
same,glycan array binding signal (z-score),[10],0.024
same,glycan array binding signal (z-score),[11],-0.004
same,glycan array binding signal (z-score),Fuc(a1-2)Gal6S(b1-4)Glc,1.57
same,glycan array binding signal (z-score),[12],-0.263
same,glycan array binding signal (z-score),[13],0.309
same,glycan array binding signal (z-score),Fuc(a1-2)[Gal(a1-3)]Gal,1.58
same,glycan array binding signal (z-score),[14],-0.278
same,glycan array binding signal (z-score),[15],-0.287
same,glycan array binding signal (z-score),[16],-0.303
same,glycan array binding signal (z-score),[17],0.005
same,glycan array binding signal (z-score),[18],2.9
same,glycan array binding signal (z-score),[19],1.82
same,glycan array binding signal (z-score),[20],-0.293
same,glycan array binding signal (z-score),[21],-0.304
same,glycan array binding signal (z-score),[22],-0.304
same,glycan array binding signal (z-score),[23],-0.254
same,glycan array binding signal (z-score),[24],0.263
same,glycan array binding signal (z-score),[25],-0.28
same,glycan array binding signal (z-score),Fuc(a1-3)GlcNAc,-0.079
same,glycan array binding signal (z-score),[26],-0.236
same,glycan array binding signal (z-score),[27],-0.258
same,glycan array binding signal (z-score),[28],-0.227
